Experimental data from publication PMC4336329 (PLoS ONE, 2015).
About 14,000 (4.5%) of roughly 310,000 compounds showed an effect of 50% or more. The effect is printed as a negative number. This is one part of the list. Where a SMILES comes first, the peptide text is derived from it. [ ]: non-standard residue; d: D form. The star is where a group is joined. ξ: configuration not given here. Boc = CC(C)(C)OC(=O)*; ξP = O=C(O)C1CCCN1

What follows are molecules tested against human ether-à-go-go-related gene (hERG) potassium channel (human, UniProt Q12809) (assay: primary screen, population patch clamp on CHO cells stably expressing hERG).
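Note: peak tail current of the secondary pulse compared with the same well before compound.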

Sequence of human ether-à-go-go-related gene (hERG) potassium channel (Q12809 whole entry, looked up): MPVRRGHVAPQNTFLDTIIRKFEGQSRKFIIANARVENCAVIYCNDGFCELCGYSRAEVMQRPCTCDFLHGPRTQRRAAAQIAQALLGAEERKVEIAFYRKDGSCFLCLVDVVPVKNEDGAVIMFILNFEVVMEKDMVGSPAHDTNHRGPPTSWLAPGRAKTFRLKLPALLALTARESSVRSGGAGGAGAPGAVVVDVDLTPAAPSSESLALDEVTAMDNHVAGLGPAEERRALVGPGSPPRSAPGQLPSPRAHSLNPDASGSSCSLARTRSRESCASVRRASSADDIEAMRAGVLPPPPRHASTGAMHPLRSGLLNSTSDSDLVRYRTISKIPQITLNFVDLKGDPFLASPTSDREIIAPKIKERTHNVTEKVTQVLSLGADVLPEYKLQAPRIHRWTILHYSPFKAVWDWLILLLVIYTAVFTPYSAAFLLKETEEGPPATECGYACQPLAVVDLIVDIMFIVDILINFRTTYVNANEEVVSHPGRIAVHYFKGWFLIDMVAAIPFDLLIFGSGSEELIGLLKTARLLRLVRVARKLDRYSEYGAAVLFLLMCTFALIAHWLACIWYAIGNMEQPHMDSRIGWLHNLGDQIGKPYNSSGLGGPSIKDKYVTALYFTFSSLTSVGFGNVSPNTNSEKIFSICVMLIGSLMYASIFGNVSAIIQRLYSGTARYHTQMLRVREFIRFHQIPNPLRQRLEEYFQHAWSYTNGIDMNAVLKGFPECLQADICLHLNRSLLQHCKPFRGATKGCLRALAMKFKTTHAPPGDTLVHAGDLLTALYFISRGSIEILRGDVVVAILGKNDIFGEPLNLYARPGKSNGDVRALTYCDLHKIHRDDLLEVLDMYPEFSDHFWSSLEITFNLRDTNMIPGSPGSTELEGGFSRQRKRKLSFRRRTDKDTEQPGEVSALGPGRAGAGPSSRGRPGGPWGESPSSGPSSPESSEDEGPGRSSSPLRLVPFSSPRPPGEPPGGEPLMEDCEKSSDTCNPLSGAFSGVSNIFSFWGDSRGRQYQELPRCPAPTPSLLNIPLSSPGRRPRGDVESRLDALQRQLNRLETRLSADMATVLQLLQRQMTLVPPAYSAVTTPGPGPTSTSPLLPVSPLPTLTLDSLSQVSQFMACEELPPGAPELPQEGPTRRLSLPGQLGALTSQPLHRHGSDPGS

SMILES | hERG current change (%, negative = inhibition) at 10uM
Cc1nn(CCCC(=O)NCc2ccco2)c(=O)c2nn(-c3ccccc3)c(C)c12 | 14.7%
CCSc1nc2ccccc2n1CC(=O)N1CCOCC1 | -5.37%
CC1Cc2ccccc2N1c1nc(C2CC2)nc2c1nnn2Cc1ccccc1 (centres unmarked) | 11.5%
O=C(NNc1ccc([N+](=O)[O-])cc1)C12CC3CC(CC(C3)C1)C2 | 19.5%
O=C(Oc1ccc(-n2cnnn2)cc1)c1ccccc1 | 8.29%
Cc1cc(N2CCN(S(=O)(=O)c3ccccc3)CC2)c2ccccc2n1 | -73.3%
Clc1nnc(NN=C2CCCC2)c2ccccc12 | -1.78%
COc1ccccc1CCNC(=O)CSc1ccc(-c2ccco2)nn1 | -38.3%
CC1Oc2cc3c(-c4c(O)cc(O)c5c(O)c6c(cc45)OC(C)C(C)C6=O)c(O)cc(O)c3c(O)c2C(=O)C1C (centres unmarked) | 10.8%
CCc1cccc(OCC(=O)Nc2ccc(C(=O)O)cc2NC(=O)COc2cccc(CC)c2)c1 | 21.1%
Cc1ccc(C(c2sc3nc(C)nn3c2O)N2CC(C)OC(C)C2)cc1 (centres unmarked) | 13.3%
O=C(NCc1ccccc1)c1cc(-c2ccco2)on1 | -41.6%
COc1ccc2nc(NC(=O)CCc3ccc(OC)c(OC)c3)sc2c1 | 26.2%
O=c1[nH]c(CN2CC=C(c3ccccc3)CC2)nc2scc(-c3ccccc3)c12 | 6.72%
COc1cccc(CNS(=O)(=O)c2cc(-c3cc(C)no3)ccc2C(C)C)c1 | -7.33%
CCOc1ccc(Nc2nc(Cc3nnc(SCC(=O)c4ccc(C)cc4)o3)cs2)cc1 | 7.7%
CCn1nc(C)cc1C(=O)N1CCCC(C(=O)c2ccccc2SC)C1 (centres unmarked) | -1.16%
CCSCc1nnc(SCC(=O)Nc2ccc(OC)cc2)n1C | 0.453%
O=C1c2ccccc2C(=O)N1c1ccc(Cc2ccncc2)cc1 | -11.4%
C=CCNC(=O)c1cccc(Br)c1 | 21.6%
O=C1CC[C@@H](CN(Cc2ccccn2)Cc2nc(-c3ccc(C(F)(F)F)cc3)no2)N1 | -62.7%
O=C(NCc1ccc(Cl)cc1)Nc1ccc(F)cc1 | 27.6%

SMILES | hERG current change (%, negative = inhibition) at 10uM
CCN(CC(=O)NC(C)(C)C)C(=O)c1ccccc1SCC(=O)NC1CCCCCCC1 | 17.6%
CC(C)N1CCC(N2CCN(C3CCCCCC3)CC2CCO)CC1 (centres unmarked) | 15.1%
Cl.NCCSC1CC(=O)N(Cc2ccc(F)cc2)C1=O (centres unmarked) | -20.4%
COc1ccc(NC(=O)c2cccc([N+](=O)[O-])c2)cc1 | 13%
COC(=O)CNC(=O)C1CCCN1C(=O)OC(C)(C)C (centres unmarked) (Boc-[ξP]-Gly-OMe) | 6.85%
CC(C)CNC(=O)COC(=O)c1c2c(nc3ccccc13)CCC2 | 4.12%
Cc1nnc(SCC(=O)Nc2sccc2C(N)=O)n1Cc1ccccc1 | -7.55%
CCOC(=O)/C(C#N)=C/c1cccc(C)c1 | 12.6%
O=C(Cc1ccc(Cl)cc1)N1CCc2ccccc2C1 | 4.94%
CC(C(=O)NC1CCCC1)N(C(=O)CS(=O)CC(=O)Nc1ccc(F)cc1)c1ccc2c(c1)OCCO2 (centres unmarked) | -3.58%
NNC(=O)CS(=O)(=O)CS(=O)(=O)CC(=O)NN | 12.2%
CCN(CC)CC(O)CN1C(=O)NC(C)(C)C1=O (centres unmarked) | 22.3%
CCOc1ccccc1C(=O)Nc1ccsc1C(=O)OC | -0.813%
FC(F)(F)Oc1ccc(NC2=NCCCS2)cc1 | -24.4%
O=C(CN1CCCCC1)NNc1nc(-c2ccccc2)c2cc(Br)ccc2n1 | -55.4%
Cc1[nH]c2ccccc2c1C(=O)CN1CCCC(C)C1 (centres unmarked) | 14%
Cc1cc(CNC(=O)c2ccc3c(c2)OCO3)c2ccccc2n1 | 5.24%
Cl.O=C(COc1ccc(Br)cc1CNC1CCCC1)Nc1ccccc1 | -73.1%
O=C(COC(=O)c1c2c(nc3ccccc13)CCCC2)Nc1ccc2c(c1)OCO2 | 3.1%
COc1cccc(CNC(=O)CSc2nnc3c(n2)[nH]c2ccccc23)c1 | -34.4%
Cc1cc(C(=O)CCl)c(C)n1-c1cccc(S(=O)(=O)N2CCOCC2)c1 | -77.4%
c1ccc(COc2ccccc2CNC2CCCC2)cc1 | -39.7%
